Reference: the supplement of paper PMC3334620
In all, about 33,000 sequences were measured (“E-score (-0.5 to 0.5)”: median about -0.016, highest 2% from about 0.32 on). Some of the results follow.

target: T1, Stp1 (UniProt B3LFK1); assay: PBM E-score (8-mer binding enrichment) (E-score (-0.5 to 0.5)); higher = stronger / more preferred TF binding; most listed sequences are background and not binding sites; details: protein concentration: 200 nM; construct: GST-full length
T1 sequence: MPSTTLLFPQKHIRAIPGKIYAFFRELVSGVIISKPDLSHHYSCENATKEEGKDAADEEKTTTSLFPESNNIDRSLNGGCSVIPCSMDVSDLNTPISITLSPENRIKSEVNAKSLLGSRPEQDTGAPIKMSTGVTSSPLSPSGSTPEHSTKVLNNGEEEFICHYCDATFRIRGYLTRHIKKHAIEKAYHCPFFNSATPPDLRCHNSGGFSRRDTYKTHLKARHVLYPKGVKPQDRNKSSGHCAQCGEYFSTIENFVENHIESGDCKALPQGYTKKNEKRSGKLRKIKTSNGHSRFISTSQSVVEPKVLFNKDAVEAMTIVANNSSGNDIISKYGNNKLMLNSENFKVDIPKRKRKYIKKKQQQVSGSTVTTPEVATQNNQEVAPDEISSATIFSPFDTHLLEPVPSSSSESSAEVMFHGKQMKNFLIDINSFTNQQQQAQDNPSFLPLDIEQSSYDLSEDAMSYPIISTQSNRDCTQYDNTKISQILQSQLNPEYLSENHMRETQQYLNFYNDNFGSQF
Outline: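 Full-length yeast transcription factors or their DNA-binding domains, GST-tagged and expressed with PURExpress, were applied at about 100-200 nM to universal all-10-mer Agilent arrays. These arrays had been made double-stranded by primer extension on fresh or once-stripped slides. Detection used fluorescent anti-GST, normalisation used masliner, and E-scores for ungapped eight-base words pooled with reverse complements came from the Universal PBM Analysis Suite.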

| Sequence | PBM E-score |
| --- | --- |
| CCAAAGCC | 0.105 |
| AACCGCAA | 0.0793 |
| TAGCTATA | -0.135 |
| CTCATGGC | 0.0928 |
| GTTCCCGA | -0.0302 |
| GCCCTAAC | 0.158 |
| AAGGACTG | -0.13 |
| ATTTGTCC | -0.00342 |
| ATCAAGAG | 0.0368 |
| CAGCACCC | -0.223 |
| GCTGGCAC | -0.02 |
| ATGGAATC | 0.117 |
| CTCACCAA | 0.045 |
| ACGTGCGA | 0.00881 |
| ATTGGACC | -0.188 |
| GCTAAACC | -0.156 |
| AGATTACA | 0.0851 |
| GAGAGCAA | -0.0418 |
| AGCTTTAA | 0.0302 |
| GAATCGTA | 0.0338 |
| CCTCAGCC | -0.162 |
| GGTCAACC | -0.115 |
| AGTTATAC | 0.121 |
| ACCGAGAC | -0.179 |
| GAGCCGCC | 0.319 |

| Sequence | PBM E-score |
| --- | --- |
| CTGTCCCA | -0.0423 |
| CTCGTCAA | 0.0518 |
| GTTCGCGA | 0.124 |
| ACTAAGAC | 0.0929 |
| GGCCGAAC | -0.119 |
| CCCTCCGG | -0.217 |
| CGTCGAAA | 0.227 |
| GCTTCAAC | -0.0217 |
| GCATGTCA | -0.0507 |
| AGAGGAGG | -0.29 |
| CACGCCCA | -0.068 |
| AAGGAATA | 0.146 |
| CGGCGGGA | 0.207 |
| ATACGCCA | 0.0267 |
| ACGAGTAC | -0.0325 |
| CAACCGTG | -0.0436 |
| CCCACATC | -0.278 |
| GAGGTGAA | -0.0598 |
| AAATAACC | -0.0869 |
| AATTTTGG | 0.00059 |
| CCAAAGAG | 0.0985 |
| TCGTATAA | 0.136 |
| AGTCGTCA | -0.184 |
| GGCAAAAA | 0.388 |
| AAAACGCG | 0.251 |

| Sequence | PBM E-score |
| --- | --- |
| AACATTTG | -0.118 |
| CTAGCTTC | -0.141 |
| ACATCTCT | -0.108 |
| AAGGTCCG | 0.0055 |
| GATCGTAC | -0.135 |
| CAGTTTCC | -0.0826 |
| GATTCGCC | 0.117 |
| CGCCAGTA | -0.00993 |
| CCCTACAA | 0.0648 |
| GGAGGGTA | -0.195 |
| TGGCCAAA | -0.185 |
| ACCACCTC | -0.108 |
| CTTCCCTC | -0.25 |
| ACCTCCCT | -0.338 |
| ACGCCACA | 0.295 |
| TAGAGGGA | -0.18 |
| CGTATACC | -0.102 |
| CTGTAAAC | -0.0181 |
| CGAATACG | 0.0295 |
| CAACCTCG | 0.0946 |
| AAGCAGGT | -0.00551 |
| CGGCATCC | 0.353 |
| ACCGGAGC | -0.0724 |
| TGGAGAAA | 0.0545 |
| TCTGTGCA | 0.0204 |

| Sequence | PBM E-score |
| --- | --- |
| TACCAACA | 0.119 |
| CTATCTAC | -0.0115 |
| GCCTGACA | -0.199 |
| AATCCCGC | 0.146 |
| CCAATCTA | -0.0701 |
| AGTAAGTC | -0.3 |
| CCCGGTGA | -0.182 |
| CAATGATG | -0.121 |
| GGATGGTA | 0.101 |
| GGACATTA | 0.00641 |
| ACGTAACC | -0.0919 |
| CGTCGCAG | 0.0327 |
| AGCCCAAC | -0.185 |
| AGTCATCA | -0.16 |
| ATCGACTC | -0.2 |
| AACGCATT | 0.0341 |
| ATCTTGAG | -0.0881 |
| GGGACGAA | -0.18 |
| CAGGGCGA | 0.0902 |
| CGTGACAA | -0.0715 |
| CTTCCCGA | 0.0459 |
| GGAGATAC | -0.0561 |
| CATCTTGA | -0.0859 |
| ACTGACCG | -0.134 |
| ATGGCCCA | -0.087 |

| Sequence | PBM E-score |
| --- | --- |
| AATCAAGA | 0.0814 |
| TAAAAGTA | 0.0436 |
| CCCCTCCC | -0.232 |
| GGTTCTGA | 0.101 |
| GCATGCGA | 0.117 |
| GCCGTGAC | 0.294 |
| CGTTACGA | 0.131 |
| GGCTACCA | -0.0236 |
| AGCCACCT | -0.21 |
| ATAGGACG | -0.0533 |
| ATGATTAG | -0.127 |
| TGATAAAA | 0.183 |
| GATTTCAA | 0.0202 |
| CAGATCCA | 0.0873 |
| CAGGTGAA | 0.103 |
| CCAGCGAA | -0.209 |
| CTGTGTAC | 0.0488 |
| ACCAACAT | 0.237 |
| AAGCTAAT | 0.103 |
| CGTGGGGC | 0.0277 |
| AGTTATCG | 0.106 |
| GCCGCCTA | 0.185 |
| GGTCACCA | -0.264 |
| CCGTACTC | 0.145 |
| CTATCGAG | 0.0364 |

| Sequence | PBM E-score |
| --- | --- |
| ACTGTCTG | -0.0255 |
| AAATAGTA | 0.0861 |
| AGCCAGCC | -0.262 |
| GTCAACAA | -0.0577 |
| CCAAAACC | 0.0568 |
| CATGTACC | -0.114 |
| GCCTGCCA | -0.00465 |
| AATGCTGT | -0.0931 |
| CACGCTTA | 0.0934 |
| AGGCTAAT | 0.134 |
| CCCGAAAA | 0.0165 |
| CGGGGGTA | -0.175 |
| AGTGTGCC | 0.128 |
| GCAGCACA | 0.117 |
| GGCAGTAA | 0.0329 |
| GAACTTGC | -0.0689 |
| CTTCGATA | 0.0898 |
| GAGGATTA | -0.0746 |
| GCCGACAC | -0.165 |
| ACCCGGAG | 0.0611 |
| TGACCGAA | 0.0394 |
| CATAAGAC | -0.0856 |
| ATGGGTAG | -0.107 |
| AAACCAAA | 0.074 |
| ACTGTAAA | 0.163 |

| Sequence | PBM E-score |
| --- | --- |
| AATTCTAC | 0.105 |
| ACGATAAG | -0.108 |
| GGAATGGA | -0.0435 |
| CCAGGGCC | -0.261 |
| AAGTCCAG | -0.265 |
| AGACCGAG | -0.25 |
| GCGAATAA | -0.0358 |
| AAAAAGAG | -0.131 |
| CGGGACGA | -0.117 |
| ACTTAAGC | -0.0869 |
| AAGTTAAA | 0.062 |
| ATAGGTAG | -0.117 |
| ACATGGCG | 0.0335 |
| CCGCGACG | 0.197 |
| CTTCTGAA | -0.0167 |
| ACGGGCTA | -0.176 |
| TAATCTCA | -0.0316 |
| GCTTGCAA | 0.162 |
| CACTCGAC | -0.0615 |
| ATGCACCC | -0.0799 |
| AGCCCACA | -0.306 |
| ACATGGAC | -0.0662 |
